Measured values: PubChem BioAssay AID588342 (National Center for Advancing Translational Sciences (NCATS), 2011)
Screen size: about 360,000 compounds; about 25,000 (6.9%) were called active. The inconclusive results got no clear call from the source; some entries with a clear call stand among them for comparison. The call rests on the fitted dose curve; in most records, active means well fitted inhibition curve with a large enough effect; inconclusive means small, poorly fitted or top-dose-only effect; inactive means flat fitted curve, though single readings scatter. Potencies beside an inconclusive call are fits to weak or partial responses and may not hold up.

Target: Luciferin 4-monooxygenase (Photinus pyralis) (UniProt P08659)
Test: qHTS profiling assay for firefly luciferase inhibitor/activator using purifed enzyme and Km concentrations of substrates (counterscreen for miR-21 project); further: nearly all actives have a fitted effect of over 55% in size
Settings: purified FLuc, luminescence inhibition; series mostly up to 57.5 µM
In short: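 Purified P. pyralis luciferase, 10 nM final, with Km-level 10 uM D-luciferin and 10 uM ATP in 50 mM Tris acetate pH 7.5, 10 mM Mg acetate, 0.01% Tween-20, 0.05% BSA; 6-point qHTS titration about 60 µM downward; luminescence read.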
Potency means the concentration at half of the fitted maximal effect; tags describe the fitted curve by direction and shape.

Chain of UniProt P08659 (P08659 whole entry, looked up): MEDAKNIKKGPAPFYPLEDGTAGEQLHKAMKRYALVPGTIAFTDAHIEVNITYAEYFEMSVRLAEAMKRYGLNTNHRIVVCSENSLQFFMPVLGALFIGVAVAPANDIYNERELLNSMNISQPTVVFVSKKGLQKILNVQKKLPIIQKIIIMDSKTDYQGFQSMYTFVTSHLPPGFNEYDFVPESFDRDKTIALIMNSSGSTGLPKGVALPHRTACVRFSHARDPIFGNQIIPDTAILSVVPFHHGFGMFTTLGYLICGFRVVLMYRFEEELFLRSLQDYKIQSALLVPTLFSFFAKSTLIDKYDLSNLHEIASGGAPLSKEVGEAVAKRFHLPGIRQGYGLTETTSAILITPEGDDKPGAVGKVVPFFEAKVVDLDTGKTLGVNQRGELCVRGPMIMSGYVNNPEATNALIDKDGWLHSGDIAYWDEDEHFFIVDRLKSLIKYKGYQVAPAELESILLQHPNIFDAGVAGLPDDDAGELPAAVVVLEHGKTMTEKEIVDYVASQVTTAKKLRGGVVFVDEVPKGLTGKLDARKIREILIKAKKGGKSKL

Row | Compound | Potency
1 | COc1ccccc1-c1nn(CCC(=O)Nc2ccc(C)cc2)c2nc(C)cc(C)c12 | inconclusive: 37.9 µM [inhibitor, partial curve, poor fit]
2 | FC(F)(F)c1cccc(N2CCN(c3nnnn3-c3ccccc3)CC2)c1 | inactive
3 | COc1ccc(S(=O)(=O)Nc2cccc(-c3ccc(N4CCCC4)nn3)c2)cc1F | active: 13.5 µM
4 | O=C(CCS(=O)(=O)c1ccccc1)Nc1nc2cc3c(cc2s1)OCO3 | active: 13.5 µM
5 | Nc1ccc(-n2cc(-c3ccccc3)[nH]c2=S)cc1 | inconclusive: 37.9 µM [inhibitor, partial curve, poor fit]
6 | Cc1[nH]n(-c2ccccc2)c(=O)c1/C=N/c1nn[nH]n1 | inconclusive: 23.9 µM [inhibitor, single point]
7 | CCc1nc(NCc2ccco2)c2oc3ccccc3c2n1 | inconclusive: 16.9 µM [inhibitor, partial curve]
8 | COc1ccc(-c2nn(-c3ccccc3)cc2/C=N/NS(=O)(=O)c2ccccc2)cc1 | inconclusive: 23.9 µM [inhibitor, partial curve, poor fit]
9 | O=C(Nc1nc2ccccc2[nH]1)c1cccc(F)c1 | active: 3.01 µM
10 | CCOc1ccccc1/C=C(\C#N)C(=O)Nc1cccc(C(=O)O)c1 | inconclusive: 16.9 µM [inhibitor, partial curve]
11 | O=C(COC(=O)c1n[nH]c2ccccc12)Nc1ccc(Cl)cc1[N+](=O)[O-] | inconclusive: 19 µM [inhibitor, partial curve, poor fit]
12 | Cc1nc(NC(=O)c2ccccc2)sc1C1(C)CC(c2ccccc2F)=NO1 (configuration not stated) | inconclusive: 21.3 µM [inhibitor, single point]
13 | COc1cccc(-c2nc(CS(=O)CC(=O)NCc3ccccc3Cl)c(C)o2)c1 (configuration not stated) | inconclusive: 37.9 µM [inhibitor, single point]
14 | CC(=O)c1cccc(NC(=O)CO/N=C2/CCCc3nonc32)c1 | inactive
15 | COc1ccc(C2C(C(=O)/C=C/c3ccco3)=C(O)C(=O)N2CCN2CCOCC2)cc1 (configuration not stated) | inconclusive: 37.9 µM [inhibitor, partial curve, poor fit]
16 | CSc1ncc(C(=O)Nc2cc(C)ccc2C)c(C)n1 | inactive
17 | CCCCOc1ccc(C(=O)NNC(=O)C2C3CCC(C3)C2C(=O)O)cc1 (configuration not stated) | inconclusive: 37.9 µM [inhibitor, single point]
18 | CC1CCCCN1C(=O)c1ccc(OC2CCN(S(=O)(=O)N(C)C)CC2)cc1 (configuration not stated) | inconclusive: 37.9 µM [inhibitor, partial curve, poor fit]
19 | O=C(CCCN1C(=O)C(c2ccccc2)Oc2cccnc21)Nc1ccccc1Cl (configuration not stated) | inactive
20 | COCCCNC(=S)N1CCN(c2nc(-c3cccc(OC)c3)cs2)CC1 | inconclusive: 26.9 µM [inhibitor, single point]
21 | CC1CCCN(c2ccc(C(=O)Nc3cccnc3)cc2[N+](=O)[O-])C1 (configuration not stated) | inconclusive: 21.3 µM [inhibitor, single point]
22 | COc1ccc(CNC(=O)C2CCN(S(=O)(=O)c3cccc(-c4noc(C)n4)c3)CC2)cc1 | inactive
23 | CC1=NOC(=O)/C1=C\c1ccccc1 | inactive
24 | O=C(NC(=S)Nc1ccc(-c2ccc(CO)o2)cc1)c1cccs1 | inconclusive: 5.36 µM [inhibitor, partial curve, poor fit]

Row | Compound | Potency
25 | CC(=O)Nc1cc(-c2nn3c(C)nnc3s2)ccc1C | inactive
26 | CN(C1=C(NC(=O)c2ccccc2)C(=O)c2ccccc2C1=O)C1CCS(=O)(=O)C1 (configuration not stated) | inactive
27 | COc1ccc2c(C)c(Cc3ccccc3)c(=O)oc2c1OC | inconclusive: 30.1 µM [inhibitor, partial curve, poor fit]
28 | Cc1cc(NC(=O)C2CC=CCC2C(=O)O)ccc1NC(=O)c1ccccc1 (configuration not stated) | inconclusive: 19 µM [inhibitor, partial curve, poor fit]
29 | Cc1nnc(SCC(=O)Nc2nnc(-c3ccccc3)o2)s1 | active: 19 µM
30 | OCCSc1nncn1/N=C/c1c[nH]c2ccccc12 | inconclusive: 23.9 µM [inhibitor, single point]
31 | Cc1cc(C(=O)OCC(=O)NCCc2ccc(S(N)(=O)=O)cc2)c2ccccc2n1 | inactive
32 | O=C1CCC(C(=O)Nc2ccc([N+](=O)[O-])cc2)N1 (configuration not stated) | inactive
33 | Cc1cccc(-n2ncc3c(NCCOCCO)ncnc32)c1 | active: 19 µM
34 | CC(=O)NCCc1ccc(C(=O)Cn2cnc3ccccc3c2=O)cc1 | inconclusive: 37.9 µM [inhibitor, partial curve, poor fit]
35 | S=C(NCc1cccs1)Nc1ccc(Cl)cc1 | inconclusive: 21.3 µM [inhibitor, single point]
36 | CC(C)CCC(CC(C)O)c1n[nH]c(=S)n1-c1ccccc1 (configuration not stated) | inactive
37 | COc1cccc(N2CC(NC(=O)/C=C\c3ccccc3)CC2=O)c1 (configuration not stated) | inactive
38 | CCOc1ccc(-c2cn3c(n2)sc2cc(C(=O)NC(C)C45CC6CC(CC(C6)C4)C5)ccc23)cc1 (configuration not stated) | inconclusive: 26.9 µM [inhibitor, partial curve, poor fit]
39 | Cc1cc(C)nc(Oc2ccc(Br)cc2Br)n1 | inconclusive: 19 µM [inhibitor, partial curve]
40 | CCOc1ccc(C(c2c(O)cc(C)n(Cc3ccco3)c2=O)N2CCN(C)CC2)cc1 (configuration not stated) | inconclusive: 19 µM [inhibitor, partial curve]
41 | COc1cc2c(cc1OC)CN(S(=O)(=O)/C=C/c1ccccc1)CC2 | inactive
42 | CC(O)CN=c1cc(-c2ccccc2)oc2ccc(Cl)cc12 (configuration not stated) | active: 15.1 µM
43 | CCc1nnc(NC(=O)c2nc(SCc3cccc(C)c3)ncc2Cl)s1 | inconclusive: 16.9 µM [inhibitor, partial curve, poor fit]
44 | Cc1ccccc1OCC(O)CN1C(=O)c2ccccc2C1=O (configuration not stated) | active: 13.5 µM
45 | Cn1cc(C(=O)Nc2cccc(F)c2)cn1 | inactive
46 | Cc1ccc(C#CC(C)(O)C(C)(C)C)cn1 (configuration not stated) | inactive
47 | CCc1ccccc1N(CC)C(=O)c1cc2c(s1)-c1ccccc1SC2 | inactive
48 | O=C(C1CC(=O)N(c2ccc(F)cc2)C1)N1CCCCC1 (configuration not stated) | inactive

Row | Compound | Potency
49 | O=C(Nc1ccncc1)c1c(F)cccc1F | inactive
50 | Cc1cccc(N=Nc2c(N)n[nH]c2N)c1 | inconclusive: 37.9 µM [inhibitor, single point]
51 | COc1ccc(Nc2nc(N)nc(CSC(=S)N3CCOCC3)n2)cc1 | inconclusive: 19 µM [inhibitor, partial curve]
52 | N#CC1=C(S)N(c2ccccc2)C(c2ccc(-c3cccc(Cl)c3)o2)NC1=O (configuration not stated) | inconclusive: 23.9 µM [inhibitor, single point]
53 | CSc1nc2ccc(NC(=O)c3ccc(F)c(F)c3)cc2s1 | inconclusive: 7.57 µM [inhibitor, full curve]
54 | Cc1cc(C)cc(NC(=O)NCc2noc3ccccc23)c1 | inactive
55 | CCn1c(C)nc2cc(C(=O)NNC(=S)Nc3ccc(C)cc3)ccc21 | inconclusive: 37.9 µM [inhibitor, partial curve, poor fit]
56 | Cc1[nH]n(-c2ccccc2)c(=O)c1N=Nc1c(O)cc(S(=O)(=O)N(C)C)c2ccccc12 | inconclusive: 26.9 µM [inhibitor, single point]
57 | CCOc1ccccc1C(=O)Nc1cccc(-c2nc3ccccc3s2)c1 | inconclusive: 8.49 µM [inhibitor, partial curve]
58 | CCOC(=O)COc1ccc2c3c(c(=O)oc2c1)CCCC3 | inconclusive: 37.9 µM [inhibitor, partial curve, poor fit]
59 | COc1ccccc1/C=C/c1nc(C#N)c(NCc2ccccc2)o1 | inconclusive: 26.9 µM [inhibitor, partial curve, poor fit]
60 | Cc1ccc2nc(SCC(=O)c3c(C)[nH]c4ccccc34)[nH]c2c1 | inconclusive: 23.9 µM [inhibitor, single point]
61 | CCOC(=O)c1ccccc1NC(=O)CSc1ccc(-c2sc(C)nc2C)nn1 | inactive
62 | CCOC(=O)c1ccc(NC(=O)CC2OCCN(CC)C2=O)cc1 (configuration not stated) | inconclusive: 33.8 µM [inhibitor, single point]
63 | O=C(CSCc1c(F)cccc1F)Nc1ccccc1 | inconclusive: 19 µM [inhibitor, partial curve]
64 | Cc1ccc(C2Nc3cccc4cccc(c34)N2)s1 | inconclusive: 26.9 µM [inhibitor, single point]
65 | COc1ccc(N2CCN(C(=O)Cc3csc(NC(=O)Nc4ccccc4OC)n3)CC2)cc1 | inconclusive: 21.3 µM [inhibitor, partial curve, poor fit]
66 | CCOc1ccc(NC(=O)N(CC(C)C)CC(C)C)cc1 | inconclusive: 30.1 µM [inhibitor, partial curve, poor fit]
67 | COc1cccc(C(=O)Nc2cccc(C(=O)NC3=NN(c4c(Cl)cc(Cl)cc4Cl)C(=O)C3)c2)c1 | active: 9.53 µM
68 | CCOc1ccccc1C(=O)NCc1ccc2c(c1)CCN2C(=O)c1ccc(F)cc1 | inactive
69 | CCC(C)OC(=O)/C(C#N)=C/c1ccc(-c2ccc(Br)cc2)o1 (configuration not stated) | inconclusive: 4.78 µM [inhibitor, full curve]
70 | COC(=O)c1ccc(C2N=C(c3cccs3)CC(c3ccccc3O)N2)cc1 (configuration not stated) | inconclusive: 37.9 µM [inhibitor, single point]
71 | COc1cc(CN(C(=O)COc2ccccc2)c2ccccn2)cc(OC)c1OC | inactive
72 | CC(=O)c1c(C)[nH]c(C(=O)Nc2ccc(C)cc2Br)c1C | inconclusive: 3.01 µM [inhibitor, full curve]
